Experimental data reported in PubChem BioAssay AID651820 (National Center for Advancing Translational Sciences (NCATS), 2012).
Among all 340,000 compounds or so, about 12,000 (3.5%) were called active. The inconclusive results got no clear call from the source; some entries with a clear call stand among them for comparison. Calls follow the shape of the dose curve; as a rule, active = well fitted inhibition curve with a large enough effect; inconclusive = small, poorly fitted or top-dose-only effect, or another doubt; inactive = no such curve, though single readings can be large or run the other way. Potencies of inconclusive entries are left out as doubtful fits.

assay: qHTS Assay for Inhibitors of Hepatitis C Virus (HCV); conditions: Huh7.5.1 HCVcc-Cre (HCVcc is cell-culture hepatitis C virus) infection, luciferase reporter, 44 h; activity change, negative = inhibition: at 41.8 µM (top of the series)
Outline: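 Antiviral activity was scored by luciferase reporter output from cells infected with HCVcc-Cre (~0.5 moi) in presence of compound, 44 h infection period, cells seeded 1,000/well 4 h prior.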
% is scaled to controls: 0 for no effect and ±100 for the full control effect; potency is read from the fitted curve at half-maximal effect; tags tell the direction and shape of the fitted curve.

| SMILES | Potency | activity change, negative = inhibition |
| --- | --- | --- |
| CCOC(=O)c1c(-c2ccccc2)csc1NC(=O)CSc1nnnn1C | active: 7.08 µM | – |
| COC(=O)Oc1ccc(/C=N/NC(=O)CSCc2ccc(Cl)cc2)cc1OC | inconclusive [inhibitor, single point] | – |
| CCOc1ccc(NC(=O)CN(C)C(=O)c2cc(-c3ccc(OC)cc3)nc3ccccc23)cc1OCC | inconclusive [inhibitor, full curve, poor fit] | – |
| CCOc1ccc(NC(=S)Nc2ccc(OC)cc2)cc1 | – | inactive: 4.68% |
| COc1cc(/C=N\Nc2nc3ccccc3o2)cc(OC)c1OC | inconclusive [inhibitor, full curve] | – |
| COC(=O)c1cc(NC(=O)Cc2ccc(OC)c(OC)c2)cc(C(=O)OC)c1 | – | inactive: -22.5% |
| O=C(COc1ccc(Br)cc1Br)NC1CCS(=O)(=O)C1 (stereo not given) | inconclusive [inhibitor, partial curve, poor fit] | – |
| Cc1nc([N+](=O)[O-])c(Br)n1CC(=O)c1ccc(Br)cc1 | inconclusive [inhibitor, single point] | – |
| Cc1c(/C=C/C(=O)c2ccccc2)cnn1C | inconclusive [inhibitor, single point] | – |
| COc1cccc(NC(=O)CN(C)C(=O)Cc2c(C)nc3ccccc3c2C)c1 | inconclusive [inhibitor, single point] | – |
| C=CCN1C=C2C(=O)C(C)(OC(=O)CCC(=O)OC)C(=O)C(Br)=C2C=C1c1ccc(OC)cc1 (stereo not given) | inconclusive [inhibitor, single point] | – |
| COc1cc(C(=O)NCCCNc2nc3cc(C)cc(C)c3cc2C#N)cc(OC)c1OC | inconclusive [inhibitor, single point] | – |
| O=C(Nc1cccc(Cl)c1)OCc1cn(-c2ccccc2)nn1 | inconclusive [inhibitor, partial curve] | – |
| COc1ccc(-c2nc(CN3CCCC(C(=O)NC4CCCC4)C3)c(C)o2)cc1 (stereo not given) | – | inactive: -20% |
| Cc1cc(C(=O)COc2cccnc2[N+](=O)[O-])c(C)n1Cc1cccs1 | inconclusive [inhibitor, single point] | – |
| COc1ccc(N(C(C)C(=O)N2CCCC2)S(C)(=O)=O)cc1 (stereo not given) | – | inactive: 7.04% |
| CC1CCN(Cc2c(C(=O)N/N=C/c3cc(Br)ccc3O)nnn2-c2nonc2N)CC1 | active: 3.55 µM | – |
| COc1ccc(CN([C@H](CO)CC(C)C)S(=O)(=O)N(Cc2ccccc2)[C@H](CO)CC(C)C)cc1 | inconclusive [inhibitor, full curve] | – |
| C=CCc1c(C)nc(SC)nc1Nc1ccc(C(C)=O)cc1 | inconclusive [inhibitor, single point] | – |
| O=C(c1ccccc1F)n1c2c(c3ccccc31)CCCC2 | inconclusive [inhibitor, partial curve] | – |
| N#CC(=C(O)COC(=O)CCCNC(=O)c1ccc(Cl)cc1)c1nc2ccccc2[nH]1 | – | inactive: 1.29% |
| Cc1cccc(Nc2c([N+](=O)[O-])c(=O)n(C)c3ccccc23)c1 | inconclusive [inhibitor, partial curve, poor fit] | – |
| COc1ccc2nc(-c3ccccc3)cc(OC)c2c1 | inconclusive [inhibitor, full curve] | – |

| SMILES | Potency | activity change, negative = inhibition |
| --- | --- | --- |
| Oc1c(C(c2ccccc2)N2CCc3ccccc3C2)sc2ncnn12 (stereo not given) | inconclusive [inhibitor, full curve, poor fit] | – |
| O=C(/C=C/c1ccc(Cl)cc1)c1ccc([N+](=O)[O-])o1 | – | inactive: -4.14% [at 8.37 µM] |
| NS(=O)(=O)c1cccc(NC(=O)CSc2ncc(C(F)(F)F)cc2Cl)c1 | inconclusive [inhibitor, partial curve, poor fit] | – |
| COc1ccc(NC(=O)CSc2ccc(NC(C)=O)cc2)cc1S(=O)(=O)N1CCCCC1 | inconclusive [inhibitor, partial curve] | – |
| O=c1c2cc(N3CCOCC3)ccc2[nH]c(=S)n1CCc1ccccc1 | – | inactive: -27.3% |
| Cc1ccccc1NC(=O)CCS(=O)(=O)c1cccc2nonc12 | – | inactive: 10.2% |
| CCCCCc1cc(=O)oc2c(C(CCN3CCCC3)c3ccc(N(C)C)cc3)c(OC)cc(OC)c12 (stereo not given) | – | inactive: -15.7% |
| CC(C)CNC(=O)CSc1nc(-c2cccs2)cc(C(F)(F)F)n1 | – | inactive: -27.8% |
| OCc1ccc(OCCCOc2cccc3cccnc23)cc1 | inconclusive [inhibitor, single point] | – |
| Cc1ccccc1Cn1nnc2c1C(=O)c1ccccc1C2=O | inconclusive [inhibitor, partial curve] | – |
| CCOC(=O)c1ccccc1NC(=O)Cc1ccc(OC)c(S(=O)(=O)N2CCOCC2)c1 | inconclusive [inhibitor, single point] | – |
| COC(=O)c1cc(NC(=S)NCc2ccc(Cl)cc2)cc(C(=O)OC)c1 | inconclusive [inhibitor, partial curve] | – |
| COc1ccc(CNC(=O)CCS(=O)(=O)c2cc3c(cc2Cl)NC(=O)CO3)cc1 | – | inactive: 3.36% |
| Cc1ccc(CN=Cc2[nH]c3ccc(Br)c(Cl)c3c2O)cc1 | inconclusive [inhibitor, single point] | – |
| CCCCn1c(SCC(=O)Nc2ccc3c(c2)OCO3)nc2c1c(=O)n(C)c(=O)n2C | inconclusive [inhibitor, partial curve] | – |
| COc1ccc(-c2cc(C(F)F)n3ncc(C(=O)N4CCN(C)CC4)c3n2)cc1 | inconclusive [inhibitor, single point] | – |
| CNc1snc(C)c1C(=O)OCC(=O)c1ccc(OC)c(F)c1 | inconclusive [inhibitor, single point] | – |
| O=C(C[n+]1ccsc1)c1ccccc1 | – | inactive: 28.3% |
| CC(C)(C)C1CCc2c(sc3ncn(N)c(=N)c23)C1 (stereo not given) | inconclusive [inhibitor, full curve] | – |
| CCCc1c2ccccc2nc2ccccc12 | – | inactive: -27.8% |
| Cc1nc2ccccc2n1/N=C/c1ccc([N+](=O)[O-])o1 | active: 10 µM | – |
| Cc1ccc(C)c(N2CCN(S(=O)(=O)c3ccc4c(c3)NC(=O)CC(=O)N4)CC2)c1 | – | inactive: 24.7% |
